Screen size: about 45,000 compounds; about 200 (0.44%) were called active. About 7% were inconclusive and are not listed. Calls come from the whole dose curve; as a rule, active = well fitted activation curve with a large enough effect; inconclusive = small, poorly fitted or top-dose-only effect; inactive = no such curve, though single readings can be large or run the other way. Some of the results follow.
Test: qHTS of TDP-43 Inhibitors: NCGC Sytravon Library Screen; note: 0% is about no effect; nearly all actives have a fitted effect of over 55% in size
Details: yeast TDP-43 toxicity rescue, BacTiter-Glo growth, 24 h; series mostly up to 46.1 µM; growth rescue (activation): at the top concentration
In short: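 TDP-43-expressing yeast, pregrown in raffinose, seeded at OD600 0.02 in galactose medium with compound for 24 hr at 30 deg C. Growth read by BacTiter-Glo luminescence, so rescue of toxicity appears as activation.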

Compound	growth rescue (activation)
COc1ccc(N(C(=O)c2ccco2)C(C(=O)NC2CCCC2)c2ccc(N3CCOCC3)cc2)c(OC)c1 (centres undefined)	inactive: 9.04%
CC(C)c1ccc(Nc2c([N+](=O)[O-])c(=O)n(C)c3ccccc23)cc1	inactive: 9.28%
COc1ccc(C(=O)C2CCCN(C(=O)c3cccnc3SC)C2)c(C)c1 (centres undefined)	inactive: 19.4%
O=C(O)Cn1c(=O)c2c3c(sc2n(Cc2ccc(Cl)cc2Cl)c1=O)CCCC3	inactive: 6.69%
O=C(COC(=O)/C=C/c1ccccc1)NC(=O)NC1CCCCC1	inactive: 16.3%
Cc1ccc2nc(C)cc(Nc3ccc([N+](=O)[O-])cc3)c2c1	inactive: -15%
COc1ccc(C2N(C(C)=O)CCN2S(=O)(=O)c2ccc(C)cc2)cc1 (centres undefined)	inactive: -4.09%
COC(=O)c1cccc(Nc2nc(-c3cccnc3)nc3ccccc23)c1	inactive: 4.43%
COC(=O)c1cc2oc3ccccc3c2n1Cc1nc(-c2ccccc2C)oc1C	inactive: 0.0862%
Cc1ccc(-c2csc3nc(C)n(-n4cccc4)c(=O)c23)o1	inactive: -3.57%
COc1ccc(/C=N/OCC(=O)NCc2cccs2)c(OC)c1	inactive: -1.07%
CCc1ccc(NC(=O)C(C)OC(=O)CC(NC(C)=O)c2ccccc2)cc1 (centres undefined)	inactive: -11.8%
COC(=O)c1[nH]c2ccccc2c1NC(=O)CN1CCN(C(=O)c2ccco2)CC1	inactive: -2.55%
O=[N+]([O-])c1cnn(-c2nc(-c3ccccc3)cc(C(F)(F)F)n2)c1	inactive: -8.04%
CN(Cc1nccn1C)C(=O)CC1C(=O)NCCN1Cc1ccc(F)cc1Cl (centres undefined)	inactive: 13.7%
COc1cc(OC)cc(C(=O)OCC(=O)N2CCCC2)c1	inactive: -15.9%
CCOC(=O)C1(C)CCCCCN1C(=O)c1ccc(SC(F)(F)F)cc1 (centres undefined)	inactive: -9.91%
O=C(CN1CCC(NC(=O)C2CC2)CC1)Nc1cccc(F)c1	inactive: 11.9%
O=C(Nc1cccnc1Cl)c1cc(-c2cccc(Cl)c2)on1	inactive: -15%
O=C(O)c1ccc(/C=N/N2CCN(Cc3ccc(Cl)cc3)CC2)cc1	inactive: 10.1%
CCc1nc2ccccc2c(C(=O)Oc2ccc(C(=O)OC)cc2)c1C	inactive: -1.36%
CCN(C(=O)CN1CCOCC1)c1c(N)n(Cc2ccccc2)c(=O)[nH]c1=O	inactive: -0.12%
C=CCNS(=O)(=O)c1ccc(N2C(=O)c3ccccc3C2=O)cc1	inactive: 1.84%

Compound	growth rescue (activation)
O=C(CNS(=O)(=O)c1ccccc1)OCC(=O)c1ccc(Br)cc1	inactive: 0.682%
c1ccc(Oc2nc(-c3ccccn3)nc3ccccc23)cc1	inactive: 6.45%
Cc1nc2cc(NC(=O)C3COc4ccccc4O3)ccc2s1 (centres undefined)	inactive: 24.8%
CCN(CC(=O)NCc1ccc(F)cc1)C(=O)/C=C/c1ccc(OC)cc1	inactive: 2.63%
CN(C)CCNC(=O)/C(=C/c1ccc(-c2ccc(Cl)cc2Cl)o1)NC(=O)c1ccccc1	inactive: 1.39%
CC(=NNC(=O)c1ccc2nc[nH]c2c1)c1ccc(Br)cc1	inactive: 16%
CCOC(=O)C(C)NC(=O)CCc1nnc2ccc(N3CCCCC3)nn12 (centres undefined)	inactive: -2.41%
Oc1c(CN2CCCCC2)cc(COCc2ccccc2)c2cccnc12	inactive: 19.4%
O=C(NCCCNC(=O)c1ccc(Cl)cc1Cl)c1ccco1	inactive: 10.9%
CCOC(=O)C1(Cc2ccc(Cl)cc2)CCN(Cc2nccn2CC)CC1	inactive: -2.34%
CCc1ccc(NC(=O)C(=O)NNC(=O)c2cccc(OC)c2)cc1	inactive: 12.6%
CSCC[C@H](NC(=O)C(C)Oc1ccc(Cl)cc1)c1nc2ccccc2[nH]1 (some centres undefined)	inactive: 1.23%
O=C(Nc1ccc([N+](=O)[O-])cc1)c1ccc(S(=O)(=O)N2CCCC2)cc1	inactive: 5.84%
Cc1ccc(CN(C)CC(=O)Nc2cccc([N+](=O)[O-])c2)o1	inactive: -11.7%
Cc1ccc(-c2nc(C)sc2CC(=O)OCC(=O)Nc2c(F)cccc2F)cc1	inactive: 12.4%
Cn1nc(C(C)(C)C)cc1NC(=O)C1(C)CCN1C(=O)c1ccccc1CCc1ccccc1 (centres undefined)	inactive: 23.9%
CC(OC(=O)C(C)N1C(=O)C2C3C=CC(C4CC34)C2C1=O)C(=O)c1ccccc1 (centres undefined)	inactive: 28.8%
O=C(Nc1ccc(O)cc1C(=O)O)c1cccs1	inactive: -10.8%
CC(NC(=O)C1c2ccccc2Oc2ccccc21)C1CCCO1 (centres undefined)	inactive: 8.85%
COc1cccc(OC)c1OCCCCn1cnc2ccccc2c1=O	inactive: 18.2%
CC(C)NC(=O)C1Cc2c(-c3ccccc3Oc3ccccc3)ccnc2O1 (centres undefined)	inactive: 6.4%
C=CCN(c1ccccc1OC)S(=O)(=O)c1cccc(C(=O)OC2CCOC2=O)c1 (centres undefined)	inactive: 5.98%
Cc1cc(C(=O)Nn2c(C)nc3ccccc3c2=O)ccc1[N+](=O)[O-]	inactive: 7.89%

Compound	growth rescue (activation)
Nn1cc(-c2ccccc2)nc1SCC(=O)Nc1ccc2c(c1)OCO2	inactive: 28.1%
Cc1sc2ncnc(NCc3cccnc3)c2c1C	inactive: 6.35%
CCCCOC(=O)c1ccc(NC(=O)c2c(Cl)ccc(Cl)c2OC)cc1	inactive: 25.4%
Cc1ccc(C)c(OC2=NS(=O)(=O)c3ccccc32)c1	inactive: -1.16%
COc1ccc(NC(=O)COC(=O)CC2CCCC2)cc1	inactive: -1.98%
CC(CCc1ccccc1)NC(=O)CCc1cn(C)c2ccccc12 (centres undefined)	inactive: 8.62%
COc1ccc(CNC(=O)COC(=O)/C=C/c2cccc(Cl)c2)cc1	inactive: 14.9%
O=Cc1sc(=O)n(Cc2cccc(C(=O)O)c2)c1Cl	inactive: -4.15%
O=C(CCn1nnc2ccccc21)OCC(=O)c1ccc([N+](=O)[O-])cc1	inactive: 1.97%
O=C(COc1ccc(Br)cc1CNC1CCCC1)Nc1ccccc1	inactive: -3.93%
COc1ccc(N2C(=O)CC(Sc3nnnn3-c3ccc(F)cc3)C2=O)cc1 (centres undefined)	inactive: 20.5%
CCCCNC(=O)N(O)C1N(/N=C/c2ccccc2O)C(=S)SC1(C)C (centres undefined)	inactive: 13.7%
Cc1cnc(C(=O)OCC(=O)Nc2cccc(C)c2C)cn1	inactive: 13.4%
CCOC(=O)C(=CNc1cccc(C)n1)C(=O)OCC	inactive: 23%
CC(=O)Nc1ccccc1OC(C)C(=O)N1CC(C)CC(C)C1 (centres undefined)	inactive: 1.94%
COc1ccc(S(=O)(=O)N(C)c2ccc(C(=O)N3CCC(C(N)=O)CC3)cc2)cc1OC	inactive: -14.9%
CCCCC(=O)Nc1ccc2c(c1)nc(CCN1CCN(C)CC1)n2C	inactive: 5.83%
CC(=O)Nc1cccc(-c2ccnc3c2CC(C)(C(=O)NCc2ccncc2)O3)c1 (centres undefined)	inactive: -0.606%
C=CCn1c(C)csc1=Nc1ccc(C(=O)O)cc1	inactive: 6.1%
CN(C)c1nnnn1Cc1ccc(Cl)cc1Cl	inactive: 2.9%
Cc1cc2oc(=O)cc(CN3CCN(S(=O)(=O)c4cccs4)CC3)c2cc1C(C)C	inactive: 7.29%
Cc1ccc(C(=O)Nc2ccc(NC(=O)c3ccco3)c(C)c2)cc1	inactive: 5.91%
Cc1ccc(C(=O)N2c3ccccc3NC(=O)C2C)cc1 (centres undefined)	inactive: 3.94%

Reference: PubChem BioAssay AID1347073 (National Center for Advancing Translational Sciences (NCATS), 2019)
